This is an account of results in article PMC12820563, “FoxP3 forms a head-to-head dimer in vivo and stabilizes its multimerization on adjacent microsatellites”.

This is one part of the list.

This experiment addresses T1, MBP-FoxP1dN (Mus musculus, UniProt P58462 326-579).
T1 sequence: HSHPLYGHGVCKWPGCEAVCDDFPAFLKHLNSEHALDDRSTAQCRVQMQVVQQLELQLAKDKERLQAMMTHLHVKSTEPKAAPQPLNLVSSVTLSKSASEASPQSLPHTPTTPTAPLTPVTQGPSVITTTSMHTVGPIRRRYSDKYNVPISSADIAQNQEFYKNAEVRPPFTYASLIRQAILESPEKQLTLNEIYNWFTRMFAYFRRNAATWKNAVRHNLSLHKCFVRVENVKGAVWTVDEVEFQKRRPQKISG
The experiment can be described thus: PD-seq (MBP pull-down with sequencing); 20 mM Tris-HCl pH 7.5, 100 mM NaCl, 1.5 mM MgCl2, 0.4 uM protein, 0.1 uM dsDNA library, 30 min, room temperature, amylose pull-down; high values mean tight binding. As to conditions: protein: recombinant; tags: His6-MBP; chain copies: 2; dsDNA, one strand shown. A digest of the protocol:
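His6-MBP-tagged mouse FoxP3 or FoxP1 fragment lacking the N-terminus, expressed in E. coli, was mixed at 0.4 µM with 0.1 µM Klenow-filled double-stranded degenerate DNA library. Incubation was 30 min at room temperature in Tris pH 7.5 buffer with NaCl and MgCl2. Complexes were caught on amylose resin and washed three times; DNA was released with proteinase K, PCR-barcoded and Illumina-sequenced. Binding is reads-per-million enrichment, pull-down over input, with replicates pooled.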
Consider “GATGATTGTTCTCCCAGCTGATGAATTCACAGAGTCGAGTAAACAAATTTTCCTAATCTTTCTGTTCAAGCGCCATCTAC”, for which the binding signal is 0.756 RPM ratio (pull-down/input). Then “GATGATTGTTCTCCCAGCTGATGAATTCGTACACTCGAGTAAACAAATTTTCCTAATCTTTCTGTTCAAGCGCCATCTAC”, with 1.01 RPM ratio (pull-down/input). Consider “GATGATTGTTCTCCCAGCTGATGAATTATGAGATTCGAGTAAACAAATTTTCCTAATCTTTCTGTTCAAGCGCCATCTAC”, for which the binding signal is 0.995 RPM ratio (pull-down/input). Then “GATGATTGTTCTCCCAGCTGATGAATTTGAAGTGTCGAGTAAACAAATTTTCCTAATCTTTCTGTTCAAGCGCCATCTAC”, with 0.887 RPM ratio (pull-down/input).

For “GATGATTGTTCTCCCAGCTGATGAATTCAGGTACTCGAGTAAACAAATTTTCCTAATCTTTCTGTTCAAGCGCCATCTAC”, the binding signal is 0.846 RPM ratio (pull-down/input). Turning to “GATGATTGTTCTCCCAGCTGATGAATTTCAAGCGTCGAGTAAACAAATTTTCCTAATCTTTCTGTTCAAGCGCCATCTAC”, the binding signal was 0.84 RPM ratio (pull-down/input). Then “GATGATTGTTCTCCCAGCTGATGAATTTCTAGTCTCGAGTAAACAAATTTTCCTAATCTTTCTGTTCAAGCGCCATCTAC”, with 0.822 RPM ratio (pull-down/input). Under “GATGATTGTTCTCCCAGCTGATGAATTGTTGTTTTCGAGTAAACAAATTTTCCTAATCTTTCTGTTCAAGCGCCATCTAC” stands 3.52 RPM ratio (pull-down/input); under “GATGATTGTTCTCCCAGCTGATGAATTTCTAGGATCGAGTAAACAAATTTTCCTAATCTTTCTGTTCAAGCGCCATCTAC”, 0.9 RPM ratio (pull-down/input); under “GATGATTGTTCTCCCAGCTGATGAATTATTTGTATCGAGTAAACAAATTTTCCTAATCTTTCTGTTCAAGCGCCATCTAC”, 2 RPM ratio (pull-down/input). Under “GATGATTGTTCTCCCAGCTGATGAATTGAGGAAATCGAGTAAACAAATTTTCCTAATCTTTCTGTTCAAGCGCCATCTAC” stands 0.939 RPM ratio (pull-down/input); under “GATGATTGTTCTCCCAGCTGATGAATTTATAGATTCGAGTAAACAAATTTTCCTAATCTTTCTGTTCAAGCGCCATCTAC”, 1.05 RPM ratio (pull-down/input). In the case of “GATGATTGTTCTCCCAGCTGATGAATTTCGTGGCTCGAGTAAACAAATTTTCCTAATCTTTCTGTTCAAGCGCCATCTAC”, the binding signal was 0.824 RPM ratio (pull-down/input). For the sequence “GATGATTGTTCTCCCAGCTGATGAATTAAGGAATTCGAGTAAACAAATTTTCCTAATCTTTCTGTTCAAGCGCCATCTAC”, the binding signal was 0.933 RPM ratio (pull-down/input). Then “GATGATTGTTCTCCCAGCTGATGAATTTATACTGTCGAGTAAACAAATTTTCCTAATCTTTCTGTTCAAGCGCCATCTAC”, with 1.11 RPM ratio (pull-down/input).

In the case of “GATGATTGTTCTCCCAGCTGATGAATTAGGGATTTCGAGTAAACAAATTTTCCTAATCTTTCTGTTCAAGCGCCATCTAC”, the binding signal was 0.917 RPM ratio (pull-down/input). Then “GATGATTGTTCTCCCAGCTGATGAATTACCCCAATCGAGTAAACAAATTTTCCTAATCTTTCTGTTCAAGCGCCATCTAC”, with 1.04 RPM ratio (pull-down/input); and “GATGATTGTTCTCCCAGCTGATGAATTCCTTACGTCGAGTAAACAAATTTTCCTAATCTTTCTGTTCAAGCGCCATCTAC”, with 0.852 RPM ratio (pull-down/input). For the sequence “GATGATTGTTCTCCCAGCTGATGAATTTAACGTTTCGAGTAAACAAATTTTCCTAATCTTTCTGTTCAAGCGCCATCTAC”, the binding signal is 0.884 RPM ratio (pull-down/input). Then “GATGATTGTTCTCCCAGCTGATGAATTTTGAGATTCGAGTAAACAAATTTTCCTAATCTTTCTGTTCAAGCGCCATCTAC”, with 0.971 RPM ratio (pull-down/input). Under “GATGATTGTTCTCCCAGCTGATGAATTACGGAGTTCGAGTAAACAAATTTTCCTAATCTTTCTGTTCAAGCGCCATCTAC” stands 0.941 RPM ratio (pull-down/input).

As for “GATGATTGTTCTCCCAGCTGATGAATTCCCACACTCGAGTAAACAAATTTTCCTAATCTTTCTGTTCAAGCGCCATCTAC”, the binding signal is 0.846 RPM ratio (pull-down/input).

“GATGATTGTTCTCCCAGCTGATGAATTGTTGCTTTCGAGTAAACAAATTTTCCTAATCTTTCTGTTCAAGCGCCATCTAC”: the binding signal was 2.12 RPM ratio (pull-down/input). Then “GATGATTGTTCTCCCAGCTGATGAATTGCAACTGTCGAGTAAACAAATTTTCCTAATCTTTCTGTTCAAGCGCCATCTAC”, with 1.44 RPM ratio (pull-down/input). Then “GATGATTGTTCTCCCAGCTGATGAATTTATTCCGTCGAGTAAACAAATTTTCCTAATCTTTCTGTTCAAGCGCCATCTAC”, with 1.11 RPM ratio (pull-down/input). Under “GATGATTGTTCTCCCAGCTGATGAATTAACCAAATCGAGTAAACAAATTTTCCTAATCTTTCTGTTCAAGCGCCATCTAC” stands 1.03 RPM ratio (pull-down/input); under “GATGATTGTTCTCCCAGCTGATGAATTTAACATATCGAGTAAACAAATTTTCCTAATCTTTCTGTTCAAGCGCCATCTAC”, 0.966 RPM ratio (pull-down/input); under “GATGATTGTTCTCCCAGCTGATGAATTTTGCACCTCGAGTAAACAAATTTTCCTAATCTTTCTGTTCAAGCGCCATCTAC”, 0.897 RPM ratio (pull-down/input). For the sequence “GATGATTGTTCTCCCAGCTGATGAATTCCTTTTATCGAGTAAACAAATTTTCCTAATCTTTCTGTTCAAGCGCCATCTAC”, the binding signal was 0.896 RPM ratio (pull-down/input). “GATGATTGTTCTCCCAGCTGATGAATTTACCCATTCGAGTAAACAAATTTTCCTAATCTTTCTGTTCAAGCGCCATCTAC”: the binding signal is 1.16 RPM ratio (pull-down/input).

For “GATGATTGTTCTCCCAGCTGATGAATTTTGCGATTCGAGTAAACAAATTTTCCTAATCTTTCTGTTCAAGCGCCATCTAC”, the binding signal was 0.992 RPM ratio (pull-down/input). Under “GATGATTGTTCTCCCAGCTGATGAATTACAACACTCGAGTAAACAAATTTTCCTAATCTTTCTGTTCAAGCGCCATCTAC” stands 1.55 RPM ratio (pull-down/input).
